Data reported in paper PMC5700166.
The entries are a selection whose mix differs from that of the whole data set. For some assays here: The list includes weakly bound sequences.

Tests used:
Test in all cases: protein-binding microarray (PBM)
Conditions in all cases: PBM: ~300 nM protein, 6 mM HEPES pH 7.8, 80 mM KCl, 0.5 mM EDTA, 0.5 mM EGTA, 6% glycerol, 35 ng/ul poly-dIdC, 1% milk, 1 h, room temperature; Ap Aiptasia and Nv Nematostella (sea anemones) / Co Capsaspora / Aq Amphimedon (sponge) / Dm Drosophila / Hu human; RHD is the Rel homology domain; high values mean tight binding; most listed sequences are background and not binding sites; double strand, one strand shown
GST-Co-NF-kB = target: T1, GST-Co-NF-kB (UniProt F1ARL5)
T1 sequence: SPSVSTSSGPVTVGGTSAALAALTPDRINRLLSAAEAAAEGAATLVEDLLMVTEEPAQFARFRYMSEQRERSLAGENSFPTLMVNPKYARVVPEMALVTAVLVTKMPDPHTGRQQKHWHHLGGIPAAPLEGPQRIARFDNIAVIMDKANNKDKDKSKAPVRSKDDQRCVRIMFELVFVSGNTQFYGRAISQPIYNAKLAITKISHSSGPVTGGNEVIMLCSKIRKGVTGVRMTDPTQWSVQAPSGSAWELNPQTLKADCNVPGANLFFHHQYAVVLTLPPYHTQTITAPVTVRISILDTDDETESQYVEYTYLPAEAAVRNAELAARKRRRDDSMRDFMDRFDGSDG

GST-Aq-NF-kB = target: T2, GST-Aq-NF-kB (UniProt A9Y5G7)
T2 sequence: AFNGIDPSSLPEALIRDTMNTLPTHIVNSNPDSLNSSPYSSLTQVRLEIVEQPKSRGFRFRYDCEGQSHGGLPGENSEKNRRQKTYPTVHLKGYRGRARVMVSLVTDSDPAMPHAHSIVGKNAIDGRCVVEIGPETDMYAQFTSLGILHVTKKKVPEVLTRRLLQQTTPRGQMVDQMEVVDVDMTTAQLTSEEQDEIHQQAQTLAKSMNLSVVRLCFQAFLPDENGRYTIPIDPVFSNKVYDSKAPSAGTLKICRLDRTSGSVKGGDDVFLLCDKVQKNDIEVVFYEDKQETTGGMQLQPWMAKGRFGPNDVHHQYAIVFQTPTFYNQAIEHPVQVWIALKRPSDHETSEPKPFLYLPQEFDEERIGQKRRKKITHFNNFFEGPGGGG

GST-Dm-Relish = target: T3, GST-Dm-Relish (UniProt Q94527)
T3 sequence: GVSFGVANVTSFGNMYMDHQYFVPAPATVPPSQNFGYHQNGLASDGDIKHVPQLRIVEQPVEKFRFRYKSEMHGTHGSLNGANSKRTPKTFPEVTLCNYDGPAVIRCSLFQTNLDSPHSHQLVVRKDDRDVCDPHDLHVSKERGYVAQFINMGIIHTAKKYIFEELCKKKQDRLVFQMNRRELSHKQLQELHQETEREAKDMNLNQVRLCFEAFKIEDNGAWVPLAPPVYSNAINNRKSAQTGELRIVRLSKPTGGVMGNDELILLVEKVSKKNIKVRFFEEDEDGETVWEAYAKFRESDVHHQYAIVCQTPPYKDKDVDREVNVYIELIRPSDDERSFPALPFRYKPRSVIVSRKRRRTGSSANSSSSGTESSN

Row | Sequence | binding signal (GST-Co-NF-kB) [z-score] | binding signal (GST-Aq-NF-kB) [z-score] | binding signal (GST-Dm-Relish) [z-score]
1 | CCGATTAACATCAGGAAGCCCCATGATGTTAATCGGGTCTTGATTCGCTTGACGCTGCTG | 0.67 | 4.02 | –
2 | CCGATTAACATCAATAGTTCCCCTGATGTTAATCGGGTCTTGATTCGCTTGACGCTGCTG | 7.79 | 5.01 | –
3 | CCGATTAACATCACACCCCCCCCTGATGTTAATCGGGTCTTGATTCGCTTGACGCTGCTG | 5.16 | 4.16 | –
4 | CCGATTAACATCAAACGCCCCCCTGATGTTAATCGGGTCTTGATTCGCTTGACGCTGCTG | 3.84 | 5.57 | –
5 | CCGATTAACATCACATGTTTCCCTGATGTTAATCGGGTCTTGATTCGCTTGACGCTGCTG | 4.5 | 4.01 | –
6 | CCGATTAACATCAATGGGATTTCTGATGTTAATCGGGTCTTGATTCGCTTGACGCTGCTG | 1.38 | 2.47 | –
7 | CCGATTAACATCAGCTAATTCCCTGATGTTAATCGGGTCTTGATTCGCTTGACGCTGCTG | 1.82 | 3.15 | –
8 | CCGATTAACATCAATTCCCCCCGTGATGTTAATCGGGTCTTGATTCGCTTGACGCTGCTG | 8.8 | 5.76 | –
9 | CCGATTAACATCAGGGGGGAAACTGATGTTAATCGGGTCTTGATTCGCTTGACGCTGCTG | 11.1 | 5.87 | 5.47
10 | CCGATTAACATCAGGAATGTCCCTGATGTTAATCGGGTCTTGATTCGCTTGACGCTGCTG | 0.775 | 6.41 | –
11 | CCGATTAACATCACGGAAAGCCCTGATGTTAATCGGGTCTTGATTCGCTTGACGCTGCTG | 0.308 | 4.35 | –
12 | CCGATTAACATCAAAATTTCACCTGATGTTAATCGGGTCTTGATTCGCTTGACGCTGCTG | 0.358 | 1.7 | –
13 | CCGATTAACATCAGGGCCTTTTGTGATGTTAATCGGGTCTTGATTCGCTTGACGCTGCTG | 0.114 | 2.46 | –
14 | CCGATTAACATCAAACATTCCCATGATGTTAATCGGGTCTTGATTCGCTTGACGCTGCTG | 2.38 | 3.52 | –
15 | CCGATTAACATCAATTTCCCCCCTGATGTTAATCGGGTCTTGATTCGCTTGACGCTGCTG | 11.5 | 6.64 | –
16 | CCGATTAACATCACAAAAACCCCTGATGTTAATCGGGTCTTGATTCGCTTGACGCTGCTG | 2.92 | 6.48 | 8.1
17 | CCGATTAACATCAGGGGAAACTATGATGTTAATCGGGTCTTGATTCGCTTGACGCTGCTG | 9.61 | 5.53 | –
18 | CCGATTAACATCAGGGAATGCCATGATGTTAATCGGGTCTTGATTCGCTTGACGCTGCTG | 1.43 | 3.45 | –
19 | CCGATTAACATCAGGAAACCACCTGATGTTAATCGGGTCTTGATTCGCTTGACGCTGCTG | 0.258 | 6.62 | –
20 | CCGATTAACATCACGGCAATCCCTGATGTTAATCGGGTCTTGATTCGCTTGACGCTGCTG | 0.66 | 2.66 | –

Row | Sequence | binding signal (GST-Co-NF-kB) [z-score] | binding signal (GST-Aq-NF-kB) [z-score] | binding signal (GST-Dm-Relish) [z-score]
21 | CCGATTAACATCAGGGGGGTACATGATGTTAATCGGGTCTTGATTCGCTTGACGCTGCTG | 5.22 | 3.31 | 4.13
22 | CCGATTAACATCAGGGGGCGGGATGATGTTAATCGGGTCTTGATTCGCTTGACGCTGCTG | 2.28 | 4.03 | –
23 | CCGATTAACATCAGGACTCCCCATGATGTTAATCGGGTCTTGATTCGCTTGACGCTGCTG | 3.44 | 4.12 | –
24 | CCGATTAACATCAAGAGATCCCCTGATGTTAATCGGGTCTTGATTCGCTTGACGCTGCTG | 2.3 | 4.97 | –
25 | CCGATTAACATCAAGAATTTCCCTGATGTTAATCGGGTCTTGATTCGCTTGACGCTGCTG | 5.07 | 7.53 | –
26 | CCGATTAACATCAGGAAGCCCCCTGATGTTAATCGGGTCTTGATTCGCTTGACGCTGCTG | 1.49 | 7.03 | –
27 | CCGATTAACATCACGGAACCCCCTGATGTTAATCGGGTCTTGATTCGCTTGACGCTGCTG | 2.13 | 5.54 | –
28 | CCGATTAACATCAAATTTCCCAGTGATGTTAATCGGGTCTTGATTCGCTTGACGCTGCTG | 4.39 | 3.48 | –
29 | CCGATTAACATCAAGGGGGAGGGTGATGTTAATCGGGTCTTGATTCGCTTGACGCTGCTG | 4.4 | 4.42 | –
30 | CCGATTAACATCAGGGGTATTACTGATGTTAATCGGGTCTTGATTCGCTTGACGCTGCTG | 3.37 | 4.5 | –
31 | CCGATTAACATCAAAATTCCACCTGATGTTAATCGGGTCTTGATTCGCTTGACGCTGCTG | 0.948 | 2.25 | –
32 | CCGATTAACATCAACTCCCCCCATGATGTTAATCGGGTCTTGATTCGCTTGACGCTGCTG | 6.49 | 4.72 | –
33 | CCGATTAACATCAAGGATCCCCCTGATGTTAATCGGGTCTTGATTCGCTTGACGCTGCTG | 5.03 | 6.4 | 8.82
34 | CCGATTAACATCAAGGGGAATACTGATGTTAATCGGGTCTTGATTCGCTTGACGCTGCTG | 6.16 | 6.62 | 6.38
35 | CCGATTAACATCAGGGGGAAGAATGATGTTAATCGGGTCTTGATTCGCTTGACGCTGCTG | 9.93 | 4.87 | –
36 | CCGATTAACATCAGGGGGAATGATGATGTTAATCGGGTCTTGATTCGCTTGACGCTGCTG | 6.6 | 4.98 | –
37 | CCGATTAACATCACAATTTTCCCTGATGTTAATCGGGTCTTGATTCGCTTGACGCTGCTG | 5.61 | 5.58 | –
38 | CCGATTAACATCAGGACTTTACCTGATGTTAATCGGGTCTTGATTCGCTTGACGCTGCTG | -0.611 | 4.69 | –
39 | CCGATTAACATCAGGGATTACCATGATGTTAATCGGGTCTTGATTCGCTTGACGCTGCTG | 1.11 | 3.67 | –
